# Assay results published in PubChem BioAssay AID1030 (National Center for Advancing Translational Sciences (NCATS), 2008).
# The whole screen tested about 220,000 compounds, of which about 16,000 (7.3%) were called active. The shares of active, inactive and inconclusive entries below differ from those in the screen. Calls come from the whole dose curve; as a rule, active = well fitted inhibition curve with a large enough effect (not every such curve was filed as active); inconclusive = small, poorly fitted or top-dose-only effect, or another doubt; inactive = no such curve, though single readings can be large or run the other way. No potency is given beside an inconclusive call; the fits are too rough.
# Biological target: Aldehyde dehydrogenase 1A1 (Homo sapiens) (UniProt P00352)
# Assay: qHTS Assay for Inhibitors of Aldehyde Dehydrogenase 1 (ALDH1A1)
# Conditions: Purified ALDH1A1, NADH fluorescence, propionaldehyde substrate; series mostly up to 75.3 µM
# Potency is the fitted concentration of half-maximal effect; tags give direction and shape of the fitted curve.
# Sequence of UniProt P00352 (P00352 whole entry, looked up): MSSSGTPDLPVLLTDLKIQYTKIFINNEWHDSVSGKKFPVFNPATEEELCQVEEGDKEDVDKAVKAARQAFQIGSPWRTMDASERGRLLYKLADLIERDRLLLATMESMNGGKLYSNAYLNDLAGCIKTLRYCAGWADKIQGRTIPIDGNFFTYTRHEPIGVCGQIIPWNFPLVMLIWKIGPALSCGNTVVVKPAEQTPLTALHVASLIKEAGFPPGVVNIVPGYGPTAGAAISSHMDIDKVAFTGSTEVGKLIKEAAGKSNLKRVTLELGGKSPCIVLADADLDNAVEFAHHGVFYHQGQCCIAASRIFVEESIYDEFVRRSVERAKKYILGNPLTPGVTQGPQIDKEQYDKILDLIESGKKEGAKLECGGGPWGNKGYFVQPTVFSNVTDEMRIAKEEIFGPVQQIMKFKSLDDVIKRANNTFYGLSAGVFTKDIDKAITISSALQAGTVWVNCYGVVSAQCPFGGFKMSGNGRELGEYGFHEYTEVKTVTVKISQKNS
row,SMILES,Potency
1,N#CCCN1CCN(C(=S)c2ccc(-c3cc(Cl)ccc3Cl)o2)CC1,"inconclusive [inhibitor, single point]"
2,COc1ccc(/C=C/c2nnc(NC(=O)COc3cccc(C)c3)s2)cc1,"inconclusive [inhibitor, partial curve]"
3,N#CCCN1CCN(C2=NC(=O)C(=C3CCCCC3)S2)CC1,active: 1.26 µM
4,O=C(NCCOC12CC3CC(CC(C3)C1)C2)c1cccc(Br)c1,active: 7.08 µM
5,N#Cc1cccc(-c2nc(NCc3cccnc3)c3ccccc3n2)c1,"inconclusive [inhibitor, single point]"
6,CC(C)C(=O)Nc1cccc(-c2nc3ccccc3c(=O)o2)c1,"inconclusive [inhibitor, single point]"
7,CCc1cc2c(=O)c(-c3ccc(F)cc3)c(C(F)(F)F)oc2cc1OCC(=O)O,"inconclusive [inhibitor, single point]"
8,COc1cccc(NC(=O)c2ccc(NC(=O)C(C)(C)C)cc2)c1,inactive
9,Cc1n[nH]c(=S)n1-c1cccc(Cl)c1,inactive
10,COc1ccccc1/C=C1\SC(=S)N(N2C(=O)CCCC2=O)C1=O,active: 25.1 µM
11,CCCCn1c(NS(=O)(=O)c2ccc(C)cc2)c(S(=O)(=O)c2ccccc2)c2nc3ccccc3nc21,"inconclusive [inhibitor, partial curve]"
12,COc1ccc(CNC(=O)C(OC(=O)c2nsc(Cl)c2Cl)C(C)C)cc1 (centres undefined),"inconclusive [inhibitor, single point]"
13,COc1ccc(N2CCN(C(CNC(=O)C(=O)NCc3cccs3)c3ccco3)CC2)cc1 (centres undefined),"inconclusive [inhibitor, single point]"
14,Cn1cccc1C(=O)OCc1csc(-c2ccccc2)n1,"inconclusive [inhibitor, single point]"
15,O=C(Nc1ccc(N2CCOCC2)cc1)c1cccc(S(=O)(=O)N2CCCCC2)c1,"inconclusive [inhibitor, partial curve]"
16,CC(=O)OCC(=O)N1CCN(c2ccc([N+](=O)[O-])cc2)CC1,"inconclusive [inhibitor, single point]"
17,COC(=O)C1CCN(Cc2cc(=O)oc3cc(OC)ccc23)CC1,"inconclusive [inhibitor, single point]"
18,CCC(C)N=C1CC(C)(C)CC(=O)/C1=C(/O)Cc1ccccc1 (centres undefined),"inconclusive [inhibitor, single point]"
19,CCc1cc2ccc(C)cc2nc1SCC(=O)c1ccc(NC(C)=O)cc1,active: 25.1 µM
20,Cc1nc(-c2ccc(NC(=O)CC(C)C)cc2)cs1,"inconclusive [inhibitor, single point]"
21,CCOC(=O)C1C(=O)NC(N2CCN(Cc3ccccc3)CC2)=NC1c1ccccc1 (centres undefined),"inconclusive [inhibitor, partial curve]"
22,CN(C)S(=O)(=O)c1cccc(-c2nnc(SCc3ccc4c(c3)OCCO4)o2)c1,inactive
23,COc1ccccc1NS(=O)(=O)c1ccc(NC(C)=O)cc1,inactive

row,SMILES,Potency
1,CCSc1nnc(NC(=O)c2cccc3ccccc23)s1,"inconclusive [inhibitor, single point]"
2,CC(=O)Oc1ccc2c(=O)c(Oc3ccccc3)c(C)oc2c1OC(C)=O,"inconclusive [inhibitor, single point]"
3,Cc1cc(OCC(=O)C(C)(C)C)c2c(C)c(C)c(=O)oc2c1,"inconclusive [inhibitor, partial curve]"
4,CCC(/C=C/C(C)C1CCC2C3CCC4=CC(=O)CC[C@@]4(C)C3CC[C@@]12C)C(C)C (some centres undefined),inactive
5,O=C(NCCCN1CCOCC1)c1ccccc1NS(=O)(=O)c1ccc(Br)cc1,inactive
6,Cc1cc(C(F)(F)F)n(-c2nc(C(=O)O)cs2)n1,"inconclusive [inhibitor, single point]"
7,COc1ccc(Cc2noc(CN(C)CC(O)c3ccccc3)n2)cc1OC (centres undefined),inactive
8,CCOc1ccc(C2NC(=O)C(C#N)=C(S)N2c2ccc(C)cc2)cc1OC (centres undefined),"inconclusive [inhibitor, single point]"
9,Cc1nc2cccc([N+](=O)[O-])c2n1CCCN(C)C,"inconclusive [inhibitor, single point]"
10,O=C(c1cccnc1)N1CCC(Oc2ccc(C(=O)N3CCCC(O)C3)cc2)CC1 (centres undefined),inactive
11,Cc1ccc(S(=O)(=O)c2cc3c(=O)n4cccc(C)c4nc3n(CC3CCCO3)c2=N)cc1C (centres undefined),"inconclusive [inhibitor, single point]"
12,O=C(Nc1ccccc1Cl)N1CCN(c2ccc3nnc(-c4ccc(F)cc4)n3n2)CC1,"inconclusive [inhibitor, single point]"
13,COc1cc(CCC(O)CC(=O)CCc2ccccc2)ccc1O (centres undefined),inactive
14,O=C(NCC1CCCO1)C(=O)NCC(c1ccco1)N1CCN(c2ccccc2F)CC1 (centres undefined),inactive
15,O=C(Nc1cc(C(F)(F)F)ccc1N1CCCCC1)c1ccco1,"inconclusive [inhibitor, partial curve]"
16,Cc1ccc(-c2cc(C(F)F)n3ncc(C(=O)N4CCCc5ccccc54)c3n2)cc1,inactive
17,COC(=O)C1=C(C)NC(=O)NC1C1CC=CCC1 (centres undefined),"inconclusive [inhibitor, single point]"
18,Cc1ccc(N(C(=O)CNC(=O)c2ccco2)C(C(=O)NC2CCCC2)c2cccnc2)cc1C (centres undefined),inactive
19,CCCCN(C)C(=S)Nc1ccc2nc(N3CCN(CC)CC3)cc(C)c2c1,"inconclusive [inhibitor, single point]"
20,COCCn1c(=O)c(-c2ccc(F)cc2)nc2cnc(N(C)C)nc21,"inconclusive [inhibitor, partial curve]"
21,COc1ccc(-c2cc(C(F)F)n3ncc(C(=O)NCCCN4CCCC4=O)c3n2)cc1,"inconclusive [inhibitor, partial curve]"
22,N/C(=N\OC(=O)c1cccs1)C1(c2ccc(Cl)cc2Cl)CC1,"inconclusive [inhibitor, single point]"
23,CCC(=O)NC(Nc1sc2c(c1C(=O)OC)CCC2)C(Cl)(Cl)Cl (centres undefined),"inconclusive [inhibitor, single point]"

row,SMILES,Potency
1,CCOc1cc(C2/C(=C(/O)c3ccc(OC(C)C)cc3)C(=O)C(=O)N2CCCOC)ccc1O (centres undefined),"inconclusive [inhibitor, single point]"
2,Cc1ccc(C(=O)NNC(=S)NC(=O)c2ccc(Cl)cc2)cc1,inactive
3,CCOc1cc(CNCC(C)C)c(Cl)cc1OCC(=O)Nc1ccccc1,"inconclusive [inhibitor, partial curve]"
4,CCC(C(=O)NCc1ccco1)N(C(=O)CNS(=O)(=O)c1ccccc1)c1ccccc1C (centres undefined),"inconclusive [inhibitor, single point]"
5,COc1ccc2c(CC(=O)Nc3ccccc3OC)coc2c1,"inconclusive [inhibitor, single point]"
6,O=C(CSc1cn(CC(=O)N2CCCCC2)c2ccccc12)NCC1CCCO1 (centres undefined),"inconclusive [inhibitor, single point]"
7,C=CCN1C(=O)C2(/C(=C(\O)c3ccc4c(c3)OCCO4)C(=O)C(=O)N2CCCOC)c2ccccc21 (centres undefined),active: 2.82 µM
8,Cc1ccc(C)c(S(=O)(=O)N=Nc2c(O)[nH]c3ccccc23)c1,active: 10 µM
9,CCc1nc(SCC(=O)N2CCC(C)CC2)c2c(=O)n(C)c(=O)n(C)c2n1,active: 11.2 µM
10,Cc1ccc(NCc2nc3ccccc3n2CCOc2ccccc2)cc1,"inconclusive [inhibitor, single point]"
11,CC(=O)NS(=O)(=O)c1ccc(NC(=S)NC(=O)c2ccco2)cc1,inactive
12,CCCOc1cccc(C(=O)Nc2cccc(NC(=O)c3ccco3)c2)c1,"inconclusive [inhibitor, single point]"
13,N#Cc1c(-c2ccc(Cl)cc2)ccnc1N1CCOCC1,inactive
14,Cc1cccc(NC(=O)CSc2nc(N)c(NC(=O)c3cccs3)c(=O)[nH]2)c1C,inactive
15,COCCN1C=C(C(=O)OC)C(c2ccc(Cl)cc2)C(C(=O)OC)=C1,"inconclusive [inhibitor, partial curve]"
16,NCCC[C@@H](CC(=O)N[C@@H]1CCNC[C@H]1C(=O)N[C@H](CC(=O)N[C@@H](CCC(=O)O)CC(=O)O)Cc1c[nH]c2ccccc12)NC(=O)C[C@H](Cc1ccccc1)NC(=O)[C@@H]1CNCC[C@H]1N,inactive
17,COc1ccc(NCC(=O)N/N=C/c2ccc3c(c2)OCCO3)cc1,"inconclusive [inhibitor, partial curve]"
18,CCOC(=O)c1sc2nc(-c3ccco3)c3c(c2c1N)CC(C)(C)OC3,"inconclusive [inhibitor, partial curve]"
19,Cc1cc(O)c(C=Nc2ccc(Cl)cn2)c(=O)o1,"inconclusive [inhibitor, partial curve]"
20,COc1cccc(C2c3c(oc4ccc(F)cc4c3=O)C(=O)N2CCCN2CCOCC2)c1 (centres undefined),inactive
21,O=C1CCCC2=C1C(c1ccc(O)cc1)c1c(ccc3ccccc13)N2 (centres undefined),"inconclusive [inhibitor, partial curve]"
22,CCCc1noc2c1/C(=N\O)CC(c1ccccc1)C2 (centres undefined),"inconclusive [inhibitor, single point]"
23,Cc1ccc(S(=O)(=O)N(C)C)cc1NC(=O)COC(=O)/C=C/c1ccc2c(c1)OCO2,"inconclusive [inhibitor, single point]"
